PubChem BioAssay AID504706 (National Center for Advancing Translational Sciences (NCATS), 2011)
In all, about 320,000 compounds went through this assay and about 200 (0.062%) were called active. The inconclusive results got no clear call from the source; some entries with a clear call stand among them for comparison. Calls come from the whole dose curve; as a rule, active = well fitted activation curve with a large enough effect; inconclusive = small, poorly fitted or top-dose-only effect; inactive = no such curve, though single readings can be large or run the other way. Potencies of inconclusive entries are left out as doubtful fits.

Test: qHTS assay for re-activators of p53 using a Luc reporter; note: nearly all actives have a fitted effect of over 45% in size
Conditions: H1299 p53-A138V BP100-luciferase reporter, luminescence, 24 h; series mostly up to 92.2 µM
Outline: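 H1299 (p53-null), stable ts p53-A138V + BP100-Luc; 1000 cells/well, Opti-MEM/10% FBS; cpd 4 pt, 1:5; 24 h, 37 deg C, 5% CO2; detection reagent 10 min RT; luminescence.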
Potency is the fitted concentration of half-maximal effect; tags give direction and shape of the fitted curve.

Q: Which Potency does the source give for O=C(OCC(=O)N1CCOCC1)c1ccc2c(c1)OCCO2 here?
A: inconclusive [activator, partial curve, poor fit]

Q: With O=[N+]([O-])c1ccc(-c2nc3ccc([N+](=O)[O-])cc3[nH]2)cc1 as the compound, how does the Potency read?
A: inconclusive [activator, partial curve, poor fit]

Q: With CC1(C)CC(=O)C(C=Nc2ccc3c(c2)OCO3)=C(O)C1 as the compound, how does the Potency read?
A: inconclusive [activator, single point]

Q: Which Potency does the source give for C[C@@H]1CN([C@@H](C)CO)C(=O)c2cccc(NS(=O)(=O)c3ccc(F)cc3)c2O[C@H]1CN(C)C(=O)NC1CCCCC1 here?
A: inactive

Q: For Nc1ccccc1-c1nc2ccccc2c(=O)o1, which Potency is on record?
A: inactive

Q: For Cc1cccn2c(=O)c3cc(S(=O)(=O)c4ccc(F)cc4)c(=N)n(Cc4ccco4)c3nc12, which Potency is on record?
A: inactive

Q: Which Potency does the source give for CC1=Nc2ccccc2/C1=C/c1sc(=S)n(-c2cccc(C(=O)O)c2)c1O here?
A: inactive

Q: Which Potency does the source give for C=C(C)CNC(=S)N/N=C\c1ccc2c(c1)OCO2 here?
A: inactive

Q: For Cc1ccc2cc(-c3noc(C4CCCO4)n3)c(=O)[nH]c2c1 (stereo not given), which Potency is on record?
A: inconclusive [activator, partial curve, poor fit]

Q: Which Potency does the source give for O=c1c(-c2ccc(O)cc2)coc2cc(OC3OC(CO)C(O)C(O)C3O)cc(O)c12 (stereo not given) here?
A: inconclusive [activator, full curve, poor fit]

Q: Which Potency does the source give for Fc1cccc(COc2ccccc2CNc2ccccc2)c1 here?
A: inconclusive [activator, partial curve, poor fit]

Q: With N#C/C(=C/c1cccnc1)c1ccccc1 as the compound, how does the Potency read?
A: inconclusive [activator, partial curve, poor fit]

Q: For N#C/C(=C(/O)c1ccco1)c1nc2ccccc2[nH]1, which Potency is on record?
A: inactive

Q: For COc1ccc(C(=O)Nc2nnc(SCC(=O)Nc3ccc(NC(C)=O)cc3)s2)c(OC)c1, which Potency is on record?
A: inconclusive [activator, partial curve, poor fit]

Q: For Cc1cc(NCc2ccccc2)n2ncc(-c3ccccc3)c2n1, which Potency is on record?
A: inconclusive [activator, full curve, poor fit]

Q: For Cc1nc(C)c(-c2ccc(SCC(=O)Nc3ccc(F)cc3F)nn2)s1, which Potency is on record?
A: inactive

Q: For Cc1csc(SCc2nnc(-c3ccccc3Br)o2)n1, which Potency is on record?
A: inconclusive [activator, partial curve, poor fit]

Q: With Cc1ccc(C)c(NC(=S)NCCc2ccc(F)cc2)c1 as the compound, how does the Potency read?
A: inactive

Q: For CCOC(=O)c1c(NC(=O)CN2CCCc3ccccc32)sc(C)c1C, which Potency is on record?
A: inconclusive [activator, partial curve, poor fit]

Q: With COc1cccc(C(=O)Nc2ccc(N3CCCC3)cc2)c1 as the compound, how does the Potency read?
A: inconclusive [activator, partial curve, poor fit]

Q: With CCOC(=O)CSc1nc2ccccc2n2cnnc12 as the compound, how does the Potency read?
A: inconclusive [activator, partial curve, poor fit]

Q: Which Potency does the source give for CCCCc1nc(N2CCOCC2)c(C#N)c2c1CCCC2 here?
A: inconclusive [activator, partial curve, poor fit]

Q: With Cc1nc(C)c(-c2csc(Nc3ncccc3C)n2)s1 as the compound, how does the Potency read?
A: inconclusive [activator, full curve, poor fit]

Q: For O=C(Nc1ccc(Cl)c(S(=O)(=O)N2CCCCC2)c1)c1ccco1, which Potency is on record?
A: inconclusive [activator, single point]

Q: With c1ccc(COc2ccc(OCCCN3CCCCC3)cc2)cc1 as the compound, how does the Potency read?
A: inconclusive [activator, partial curve, poor fit]

Q: For COC(=O)CSc1cc(C)nc2ccc(OC)cc12, which Potency is on record?
A: inconclusive [activator, single point]

Q: With OCCN1CCN(C(=S)NCCc2ccccc2)CC1 as the compound, how does the Potency read?
A: inconclusive [activator, full curve, poor fit]

Q: Which Potency does the source give for COc1ccc(NC(=O)c2ccc3c(c2)OCO3)cc1 here?
A: inactive

Q: For CC(C)(C)C(=O)Oc1ccc2cc(-c3ccc4ccccc4n3)c(=O)oc2c1, which Potency is on record?
A: inconclusive [activator, partial curve, poor fit]

Q: For CC(C)Sc1nc2c(c(=O)n1C)SC(C)C2 (stereo not given), which Potency is on record?
A: inconclusive [activator, single point]

Q: For O=C(c1cn(Cc2ccccc2)nc1-c1ccc(Cl)cc1)N1CCN(c2ccccn2)CC1, which Potency is on record?
A: inactive

Q: With Cc1cccc(-c2ccc(NC(=O)C3CCN(CC4CC4)CC3)cc2)c1 as the compound, how does the Potency read?
A: inconclusive [activator, partial curve, poor fit]

Q: For CCCC(=O)Nc1ccc(-c2csc(-c3cccnc3)n2)cc1, which Potency is on record?
A: inconclusive [activator, single point]

Q: Which Potency does the source give for COc1ccc(N2C(=O)C3[C@@H](C2=O)C2(Cl)C(Cl)=C(Cl)C3(Cl)C2(OC)OC)cc1 (stereo not given in full) here?
A: inactive

Q: With COc1cc(NC(=O)c2ccc(C)cc2)ccc1NC(=O)c1cc2ccccc2o1 as the compound, how does the Potency read?
A: inactive

Q: With O=C(Nc1ccc(O)cc1)c1ccc2c(c1)C(=O)N(Cc1cccnc1)C2=O as the compound, how does the Potency read?
A: inconclusive [activator, single point]

Q: With CC(OC(=O)CCN=C1NS(=O)(=O)c2ccccc21)C(=O)NCc1ccccc1 (stereo not given) as the compound, how does the Potency read?
A: inactive

Q: With C/C(CC(=O)Nc1cc(C)ccn1)=N\NC(=O)c1cccc(F)c1 as the compound, how does the Potency read?
A: inconclusive [activator, partial curve, poor fit]

Q: For O=C(NCCc1ccc2c(c1)OCCO2)c1cc2ccccc2o1, which Potency is on record?
A: inconclusive [activator, partial curve, poor fit]

Q: For CN(C)/C=N/C(=S)Nc1ccc(Br)cc1F, which Potency is on record?
A: inconclusive [activator, partial curve, poor fit]

Q: For CN1CCN(c2nc(-c3ccc(Cl)cc3Cl)nc3ccccc23)CC1, which Potency is on record?
A: inactive

Q: Which Potency does the source give for CCCOc1ccc(OCCSc2ncccn2)cc1 here?
A: inconclusive [activator, full curve, poor fit]

Q: For Nc1c(C(=O)NCCc2ccccc2)nnn1Cc1ccccc1, which Potency is on record?
A: inconclusive [activator, partial curve, poor fit]

Q: For Cn1cncc1C#Cc1c(-c2ccc(S(C)(=O)=O)cc2)sc2ccccc12, which Potency is on record?
A: inactive

Q: Which Potency does the source give for C(=C\c1ccccn1)/c1cccnc1 here?
A: inconclusive [activator, partial curve, poor fit]

Q: For CCOC(=O)c1c(C)nc2c3ccccc3ccn12, which Potency is on record?
A: inconclusive [activator, partial curve, poor fit]

Q: Which Potency does the source give for NCc1cccc(CNc2ccc([N+](=O)[O-])cc2C(N)=O)c1 here?
A: inconclusive [activator, partial curve, poor fit]

Q: For Cc1cc(C(=O)NNc2ccccc2F)no1, which Potency is on record?
A: inactive

Q: With Cc1ncc(CO)c(/C=N/NC(=O)c2ccccc2Br)c1O as the compound, how does the Potency read?
A: inactive

Q: For CC1(C(=O)OCC(=O)Nc2ccccc2Cl)CC1(Cl)Cl (stereo not given), which Potency is on record?
A: inactive

Q: Which Potency does the source give for CCC(=O)Nc1cc(C(=O)OCC(=O)c2ccccc2)ccc1C here?
A: inconclusive [activator, partial curve, poor fit]

Q: Which Potency does the source give for CC1CCCCN1C(=O)CSCC(=O)Nc1nc(-c2cccs2)cs1 (stereo not given) here?
A: inconclusive [activator, partial curve, poor fit]

Q: With Cc1ccc2oc(C(=O)NCCC3CCCCO3)c(C)c2c1 (stereo not given) as the compound, how does the Potency read?
A: inconclusive [activator, full curve, poor fit]

Q: Which Potency does the source give for O=S1(=O)CCC(N=Cc2ccc(-c3ccc(Cl)cc3)o2)C1 (stereo not given) here?
A: inconclusive [activator, partial curve, poor fit]

Q: With COc1ccc(NC(=O)Nc2cc(C)ccc2OC)cc1 as the compound, how does the Potency read?
A: inactive

Q: With O=C(NNC(=O)c1ccc(Br)o1)c1ccc(NC(=O)c2ccccc2)cc1 as the compound, how does the Potency read?
A: inactive

Q: For O=C(CSc1nnc(-c2ccccn2)o1)Nc1ccccc1F, which Potency is on record?
A: inconclusive [activator, partial curve, poor fit]

Q: With Cc1cc(NC(=O)CSc2nnc(CNC(=O)c3ccc(C(C)(C)C)cc3)o2)no1 as the compound, how does the Potency read?
A: inactive

Q: For C=CCN1C(=O)/C(=C/c2ccc(OCC(=O)O)cc2)S/C1=N/c1nccs1, which Potency is on record?
A: inactive

Q: Which Potency does the source give for CC(C)c1ccc(S(=O)(=O)N2CCC(C(=O)N3CCC3)CC2)cc1 here?
A: inactive

Q: With O=C(Nc1ccc(-c2cn3ccccc3n2)cc1)c1cccs1 as the compound, how does the Potency read?
A: inconclusive [activator, partial curve, poor fit]

Q: For C[C@@H]1CC=C[C@H]2[C@H]1C(=O)N(Cc1ccccc1)[C@H]2c1ccc(-c2cc3ccccc3s2)cc1F, which Potency is on record?
A: inconclusive [activator, full curve, poor fit]

Q: With Cc1ccc(CNC(=O)Cn2ccc3cc(S(=O)(=O)N4CCCCCC4)ccc32)cc1 as the compound, how does the Potency read?
A: inactive

Q: With C/C(NC(=O)c1cccc(F)c1)=C1/C(=O)C[C@@H]2[C@H]1C2(C)C as the compound, how does the Potency read?
A: inconclusive [activator, full curve, poor fit]

Q: For Cc1ccc2nc(N3C(=O)C(O)=C(C(=O)c4ccco4)C3c3cccs3)sc2c1 (stereo not given), which Potency is on record?
A: inconclusive [activator, partial curve, poor fit]

Q: For CCOC(=O)N1CCN(C(=O)CSc2ccc(Cl)cc2)CC1, which Potency is on record?
A: inconclusive [activator, partial curve, poor fit]

Q: Which Potency does the source give for Cc1cccnc1NCc1ccc(O)c2ncccc12 here?
A: inactive

Q: For Cc1ccc(-c2[nH][nH]c(=O)c(=O)c2N=Nc2ccccc2)cc1, which Potency is on record?
A: inactive

Q: With Cc1cc(C(=O)Nc2ccc3ccccc3c2)oc1C as the compound, how does the Potency read?
A: inconclusive [activator, partial curve, poor fit]

Q: For O=C(NC1CCCC1)c1cnn2c(C(F)(F)F)cc(-c3ccc4c(c3)OCO4)nc12, which Potency is on record?
A: inactive
